Experimental data from PubChem BioAssay AID1345082 (National Center for Advancing Translational Sciences (NCATS), 2018).
Several values for one entry are separate records, joined by “and”; a condition that tells them apart may be missing. Equal entries are not always repeated. Out of some 94,000 compounds screened, about 4,000 (4.3%) were called active. Inconclusive results, whose numbers are uncertain, are shown with a selection of clear calls. Calls come from the whole dose curve; as a rule, active = well fitted inhibition curve with a large enough effect; inconclusive = small, poorly fitted or top-dose-only effect; inactive = no such curve, though single readings can be large or run the other way. Potencies beside an inconclusive call are fits to weak or partial responses and may not hold up.

Test: Cytotoxic Profiling in NIH 3T3 Cell Line of Diverse Libraries Using Quantitative High-Throughput Screening; note: nearly all actives have a fitted effect of over 55% in size
Details: NIH 3T3 viability, CellTiter-Glo ATP luminescence, 48-72 h; series mostly up to 96.7 µM
Procedure, shortened: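 Mouse fibroblast NIH 3T3 cells, 400 per well, received compound via pintool and were incubated for 48 or 72 hr prior to CellTiter-Glo ATP luminescence measurement.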
Potency is the fitted concentration of half-maximal effect; tags give direction and shape of the fitted curve.

Row | SMILES | Potency
1 | O=C(c1cc(F)ccc1F)N1CCC(Cc2nc(-c3ccc(F)cc3)no2)CC1 | inconclusive: 7.94 µM [inhibitor, partial curve, poor fit]
2 | Cn1nc(C2CCCN(C(=O)NCc3ccccc3)C2)n(C2CCCC2)c1=O (centres undefined) | inactive
3 | CCN(Cc1ccccc1)C(=O)CCC[C@@H]1[C@H]2CCCN3CCC[C@@H](CN1C(=O)c1ccccc1)[C@@H]23 | inactive
4 | Cc1ccc(C(=O)N(C)Cc2ccc(-c3ccccc3)cc2)cc1 | inconclusive: 89.1 µM [inhibitor, partial curve]
5 | Cc1ccsc1C(=O)N1CCCn2cc(-c3ccccc3)nc21 | inactive
6 | COc1ccc(-c2ccc3ncc(Nc4cccc(N[S+](C)(=O)[O-])c4)n3n2)cc1OC | inconclusive: 10 µM [inhibitor, full curve, poor fit]
7 | CC(C)C[C@@H]1N[C@H](C(=O)NC(C)C)Cc2cn(Cc3ccccn3)c3cccc1c23 | active: 44.7 µM
8 | Cc1ccc(C#N)c(N2CCCC(c3nccn3CC3CCC3)C2)n1 (centres undefined) | inconclusive: 56.2 µM [inhibitor, partial curve, poor fit]
9 | O=C1[C@@H]2C[C@@H](CN2Cc2ccc(Cl)cc2)Oc2ccccc2N1CC1CC1 | active: 89.1 µM
10 | CC(C)C[C@H]1NC(=O)[C@@H]2C[C@@H](NC(=O)COCC(=O)O)CCN2C1=O | inactive
11 | O=C1c2c(-c3nc(-c4ccsc4)no3)nnn2CCN1Cc1cc(F)cc(F)c1 | inconclusive: 22.4 µM [inhibitor, partial curve, poor fit]
12 | COC(=O)COc1cccn2c(=O)c(-c3cc(C)n(-c4ccc(Cl)c(Cl)c4)n3)c(C)nc12 | inactive
13 | CCN1CCN(C(=O)c2nc3sccn3c2-c2ccccc2)CC1 | inactive
14 | CN1CCCCC1C(=O)NCc1cccnc1Oc1cccc(C(F)(F)F)c1 (centres undefined) | inactive
15 | COc1ccc(-c2nnc3ccc(NCCc4ccccn4)nn23)nc1 | inconclusive: 56.2 µM [inhibitor, partial curve, poor fit]
16 | CC1=C[C@@H](CNS(=O)(=O)Cc2ccccc2)[C@H](C(C)C)C[C@H]1CC(=O)N1CCN(C)CC1 | inactive
17 | COc1ccc(-c2noc([C@@H]3CCCN3C(=O)CCc3ccccc3)n2)cc1OC | inconclusive: 44.7 µM [inhibitor, partial curve, poor fit]
18 | COc1ccc(-c2nn(-c3ccccc3)cc2CN2CCC(F)CC2)c(F)c1 | inconclusive: 56.2 µM [inhibitor, partial curve, poor fit]
19 | COc1ccc(-c2nc(CN3CCC(CO)CC3)c(C)o2)c2ccccc12 | inconclusive: 14.1 µM [inhibitor, full curve, poor fit]
20 | Cc1[nH]c2ccccc2c1CC(=O)N1CC[C@@](O)(C2CCOCC2)[C@H](C)C1 | inconclusive: 44.7 µM [inhibitor, partial curve, poor fit]
21 | COc1ccc(-c2cnc3[nH]cc(CC(=O)NCc4cnccn4)c3c2)cc1 | active: 31.6 µM
22 | Cc1cc(C)cc(-c2ccc(CN3CCCC(NC(=O)c4ccncc4)C3)cc2)c1 (centres undefined) | active: 25.1 µM
23 | CC1CCC(NC(=O)c2cc3n(n2)CC(c2ccc(Cl)cc2)OC3)CC1 (centres undefined) | inconclusive: 50.1 µM [inhibitor, partial curve, poor fit]

Row | SMILES | Potency
24 | C[S+](=O)([O-])N1Cc2ccccc2CC2(CCCCN2CC2CCCC2)C1 (centres undefined) | inconclusive: 79.4 µM [inhibitor, single point]
25 | CCOc1ccc(NC(=O)N2CCc3c(c4ccccc4n3C)C2)cc1 | inconclusive: 50.1 µM [inhibitor, single point]
26 | CN(Cc1ccccc1C(F)(F)F)C(=O)Cc1cccc(Cl)c1 | inconclusive: 79.4 µM [inhibitor, partial curve]
27 | CC(C)CNC(=O)c1cc(-c2ccc(F)cc2)nc2c1cnn2C | inconclusive: 44.7 µM [inhibitor, full curve]
28 | COc1ccc(CCNC(=O)c2ccc3oc(-c4ccccn4)nc3c2)cc1 | inconclusive: 56.2 µM [inhibitor, single point]
29 | CC1(C)C[C@H]2C[C@@H](O)[C@H](N3CCN(c4cccc(Cl)c4)CC3)[C@]2(O)CO1 | inactive
30 | O=c1cc(N2CCOCC2)oc2c(N3CCOCC3)nccc12 | active: 39.8 µM
31 | O=C(C1CCCC1)N1CCCN(c2ccc3nnc(-c4ccccc4)n3n2)CC1 | inconclusive: 50.1 µM [inhibitor, partial curve, poor fit]
32 | Cc1c(F)cccc1NC(=O)N1CCCC(c2noc(COc3ccccc3F)n2)C1 (centres undefined) | inconclusive: 44.7 µM [inhibitor, partial curve, poor fit]
33 | O=c1[nH]c(C2CCCN(Cc3cccc(-c4ccsc4)c3)C2)nc2ccc(F)cc12 (centres undefined) | inconclusive: 35.5 µM [inhibitor, partial curve, poor fit] and active: 28.2 µM
34 | CCOCCCNC(=O)C1CCCN(Cc2cccc(-c3cccs3)c2)C1 (centres undefined) | inconclusive: 44.7 µM [inhibitor, partial curve, poor fit]
35 | COc1ccc(F)c(-c2nc(CN3CCN4C(=O)CNC(=O)C4C3)c(C)o2)c1 (centres undefined) | inactive
36 | Cc1ccccc1CN1C[C@@H](CO)[C@H](c2nc(-c3ccncc3)no2)C1 | inconclusive: 20 µM [inhibitor, partial curve, poor fit]
37 | CN(C)C(=O)c1ccc2oc(-c3ccncc3Cl)nc2c1 | inactive
38 | Cc1cnc(C(=O)N2CCC(c3nc(CCOc4ccc(F)cc4)no3)C2)cn1 (centres undefined) | inconclusive: 50.1 µM [inhibitor, partial curve, poor fit]
39 | O=C(NCCc1ccccc1F)c1cn2cc(-c3cccc(C(F)(F)F)c3)sc2n1 | inconclusive: 44.7 µM [inhibitor, partial curve]
40 | CN1Cc2cc(F)ccc2NCCC1=O | inactive
41 | COc1ccc(CC(=O)NC2CCCN(Cc3ccc(-c4cc(C)cc(C)c4)cc3)C2)cc1 (centres undefined) | active: 17.8 µM
42 | O=C(CN1C(=O)NC(c2ccccc2Cl)C2=C1COC2=O)NC1CCCC1 (centres undefined) | inactive
43 | O=C(Cc1ccc(F)cc1)N1CCC2(CC1)CC(c1cccc(C(F)(F)F)c1)=NO2 | active: 39.8 µM
44 | CCc1cc(=O)n(CC(=O)NCc2cccc(OC)c2)c(N2CCOCC2)n1 | inactive
45 | Cc1ccc(CN2CCC3(CC2)C(=O)NCN3Cc2ccc(Cl)cc2)cc1 | inactive
46 | Cc1cc(=O)n(CC(=O)NC(C)C)c(N2CCc3ccccc3C2)n1 | inactive

Row | SMILES | Potency
47 | Cc1nnc2n1CCC(N(C)C(=O)CC1=CCCCC1)CC2 (centres undefined) | inactive
48 | O=C(Cn1nc2c(cc1=O)CCCC2)NCCn1ccc2ccc(F)cc21 | inactive
49 | O=C(c1cccc(Cl)c1)N1CCCC(C(=O)N2CCCC2c2nc3ccncc3[nH]2)C1 (centres undefined) | inactive
50 | Cn1nccc1C(=O)N1CC(c2ncc3c(-c4ccccc4)nccn23)C1 | inactive
51 | CC(C)NC(=O)C[C@@H]1C[C@H]2O[C@H](CNC(=O)NCc3ccccc3)[C@@H](O)[C@H]2O1 | inactive
52 | O=C(CCCN1C(=O)COc2ccc(C(=O)COc3cccc(Cl)c3)cc21)NCc1ccccc1 | inconclusive: 50.1 µM [inhibitor, partial curve, poor fit]
53 | Cn1nc(C2CCCC2)cc1NC(=O)c1cccc(Cl)c1 | inconclusive: 100 µM [inhibitor, partial curve, poor fit]
54 | COc1ccc(C(=O)NCCn2ccn3nc(-c4ccc(C)cc4C)cc3c2=O)cc1F | inconclusive: 28.2 µM [inhibitor, partial curve, poor fit]
55 | COc1cccc(S(=O)(=O)N2CCC(Cc3nncn3C)CC2)c1 | inactive
56 | COc1ccc(-c2noc([C@@H]3CCCN3C(=O)c3ccc(C(C)(C)C)cc3)n2)cc1OC | inconclusive: 50.1 µM [inhibitor, partial curve, poor fit]
57 | N#Cc1cccnc1-c1cccc(C(=O)NCCNC(=O)Cc2ccccn2)c1 | inactive
58 | O=C(c1cnccn1)N1CCC(Oc2ccccc2-c2nc(-c3ccccc3)no2)C1 (centres undefined) | inconclusive: 50.1 µM [inhibitor, partial curve, poor fit]
59 | Cc1nn2c(c1-c1ccccc1-c1ccccc1)N(C(=O)C1CCOCC1)CCC2 | inconclusive: 44.7 µM [inhibitor, full curve, poor fit]
60 | CCn1cc(S(=O)(=O)N2CC(F)(F)C[C@H]2c2nnc(C)o2)cn1 | inactive
61 | CC(C)(C)C(=O)N1CCC2(CC1)CCN(Cc1cccs1)c1ccccc1O2 | inconclusive: 22.4 µM [inhibitor, full curve]
62 | CN1CC(CO)C2(CCN(Cc3ccc(Cl)cc3)CC2)C1 (centres undefined) | inconclusive: 50.1 µM [inhibitor, partial curve, poor fit]
63 | COc1ccc(C(=O)NC2CCCN(c3cc(-c4ccccc4)[nH]n3)C2)cc1F (centres undefined) | active: 15.8 µM
64 | O=[S+]([O-])(Nc1ccccc1)c1ccc2c(c1)OCCN(Cc1nccs1)C2 | inconclusive: 79.4 µM [inhibitor, partial curve]
65 | Cc1nc(-c2ccccc2)n(Cc2cc(=O)n3ccccc3n2)c(=O)c1CCO | inconclusive: 56.2 µM [inhibitor, partial curve, poor fit]
66 | CC1=C[C@@H](CN2CCN(CCO)CC2)[C@H](C(C)C)C[C@H]1Cc1nnc(-c2ccncc2)o1 | inconclusive: 44.7 µM [inhibitor, partial curve, poor fit]
67 | CCCN1Cc2ccccc2NC(=O)C12CCNC2 (centres undefined) | inactive
68 | CN(CC1CCOC1)S(=O)(=O)c1ccccc1Br (centres undefined) | inactive
69 | CNC(=O)c1c(C)nc2cnccn12 | inactive
